Where a name gives a salt, the structure may show the parent alone. ± gives the standard deviation of the averaged measurements. The list shows a part of the results. Single values are uncertain, as repeats are few or missing.
Legend:
Assay in all cases: log2 surviving fraction relative to plate median (drug vs vehicle, or drug+dl922-947 vs dl922-947 alone); ovarian cancer lines: OVCAR4 is platinum-sensitive while Ov4Cis resists cisplatin and Ov4Carbo carboplatin; higher = more cell survival
Conditions in all cases: compound concentration: 10 uM, 192 h
OVCAR4 = tested on: OVCAR4
Ov4Carbo = tested on: Ov4Carbo
Ov4Cis = tested on: Ov4Cis
[1] = dl922-947 oncolytic adenovirus co-treatment: MOI 10
[2] = dl922-947 oncolytic adenovirus co-treatment: none

SMILES | log2 surviving fraction (OVCAR4; [1]) | log2 surviving fraction (OVCAR4; [2]) | log2 surviving fraction (Ov4Carbo; [1]) | log2 surviving fraction (Ov4Carbo; [2]) | log2 surviving fraction (Ov4Cis; [1]) | log2 surviving fraction (Ov4Cis; [2])
Cc1ccc(Nc2nccc(N(C)c3ccc4c(C)n(C)nc4c3)n2)cc1S(N)(=O)=O [Pazopanib] | 0.798 ± 0.011 | 0.38 ± 0.61 | 1.9 | 0.00142 | 0.113 | 0.0949
CN(C(=O)CN(CCO)CC(=O)N(C)C(C)(C)Cc1ccccc1)C(C)(C)Cc1ccccc1 [Oxethazaine] | -5.78 ± 1.9 | -3.08 ± 4.3 | -5.76 | -6.17 | -5.97 | -5.3
CCn1cc(C(=O)O)c(=O)c2cc(F)c(N3CCNCC3)cc21 [Norfloxacin (Norxacin)] | 0.0784 ± 1.2 | -0.234 ± 0.089 | 0.501 | -0.00239 | 0.322 | 0.459
N[C@@H](C(=O)N[C@@H]1C(=O)N2C(C(=O)O)=C(Cl)CS[C@H]12)c1ccccc1 [Cefaclor (Ceclor)] | 1.09 ± 0.66 | 0.144 ± 0.1 | 1.09 | 0.249 | 0.388 | 0.626
Cc1ccccc1C(=O)Nc1ccc(C(=O)N2CCCC(O)c3cc(Cl)ccc32)c(C)c1 (configuration not stated) | -1.07 ± 0.17 | -0.823 ± 0.19 | -2.11 | -0.452 | -1.38 | -2.77
COc1cc2nc(N3CCN(C(=O)C4COc5ccccc5O4)CC3)nc(N)c2cc1OC (configuration not stated) [Doxazosin mesylate] | -0.647 ± 0.88 | -1.16 ± 0.29 | -1.07 | -2.32 | -0.73 | -1.64
COc1ccc2c(c1)c(CC(=O)OCC(=O)O)c(C)n2C(=O)c1ccc(Cl)cc1 [Acemetacin (Emflex)] | -0.0171 ± 0.17 | 0.261 ± 0.34 | 0.0791 | -1.4 | 1.29 | 0.957
CCOC(=O)C1=C(COCCN)NC(C)=C(C(=O)OC)C1c1ccccc1Cl (configuration not stated) [Amlodipine (Norvasc)] | -2.71 ± 0.87 | -2.51 ± 0.37 | -1.83 | -0.981 | -5.23 | -6.59
Cc1c(C(=O)NN2CCCCC2)nn(-c2ccc(Cl)cc2Cl)c1-c1ccc(Cl)cc1 | -1.28 ± 0.29 | -3.22 ± 0.71 | -0.758 | -6.33 | -2.13 | -3.7
O=C(O)c1cn(C2CC2)c2cc(N3CCNCC3)c(F)cc2c1=O [Ciprofloxacin (Cipro)] | -0.875 ± 0.052 | -0.703 ± 0.47 | -0.375 | -0.921 | -1.24 | -0.878
CN1C2CCCC1CC(NC(=O)c1nn(C)c3ccccc13)C2 (configuration not stated) [Granisetron HCl] | -0.118 ± 0.47 | 0.112 ± 0.19 | -0.176 | -0.289 | 0.0998 | -0.0419
CN(C)[C@@H]1C(O)=C(C(N)=O)C(=O)[C@@]2(O)C(O)=C3C(=O)c4c(O)cccc4[C@@](C)(O)[C@H]3C[C@@H]12 [Tetracycline HCl] | 1.04 ± 0.11 | 0.103 ± 1.8 | -0.00279 | 0.464 | 1.28 | 0.557
Nc1ncn([C@@H]2O[C@H](CO)[C@@H](O)[C@H]2O)c(=O)n1 [Azacitidine (Vidaza)] | 0.436 ± 1.3 | 0.0773 ± 1.1 | 0.338 | 0.88 | -0.842 | 0.322
COC(=O)Nc1nc2cc(Sc3ccccc3)ccc2[nH]1 [Fenbendazole (Panacur)] | -3.16 ± 4.1 | -4.21 ± 2.1 | -5.01 | -6.67 | -1.21 | -1.32
CC1=NN(c2ccccc2)C(=O)C1 [Edaravone (MCI-186)] | 0.23 ± 0.12 | -0.437 ± 0.27 | -0.656 | -0.13 | -0.125 | -0.243
Cc1cc(C)nc(NS(=O)(=O)c2ccc(N)cc2)n1 [Sulfamethazine] | 0.662 ± 0.077 | -0.122 ± 0.43 | 0.715 | -0.77 | 0.371 | 0.237
c1cnc2cc3c(cc2n1)[C@@H]1CNC[C@H]3C1 [Varenicline tartrate] | 0.49 ± 0.69 | 0.487 ± 0.18 | -0.524 | 1.16 | -0.21 | 0.549
O=C(O)c1ccccc1 [Benzoic acid] | 0.0815 ± 0.032 | -0.94 ± 0.53 | 0.615 | -0.195 | -1.3 | -0.382
Cc1ncc(CO)c(CO)c1O [Pyridoxine hydrochloride] | 0.399 ± 0.6 | -0.141 ± 0.086 | -0.241 | 0.226 | 0.372 | -0.0611
CCCCc1oc2ccccc2c1C(=O)c1cc(I)c(OCCN(CC)CC)c(I)c1 [Amiodarone HCl] | -2.96 ± 0.48 | -1.87 ± 0.36 | -2.92 | -1.77 | -3.86 | -4.1
O=C(CCNNC(=O)c1ccncc1)NCc1ccccc1 [Nialamide] | 0.669 ± 0.51 | 0.316 ± 0.12 | -1.15 | -1.12 | -0.124 | 0.0682
C[C@H](N[C@@H](CCc1ccccc1)C(=O)O)C(=O)N1CCC[C@H]1C(=O)O [Enalaprilat dihydrate] | 0.991 ± 0.43 | 0.0354 ± 0.15 | 0.0465 | -1.22 | 0.0725 | 0.824
CN(Cc1ccc(C(C)(C)C)cc1)Cc1cccc2ccccc12 [Butenafine HCl] | 0.665 ± 0.018 | 0.453 ± 0.16 | 0.121 | -0.853 | 0.704 | 0.522
CN(C)[C@@H]1C(O)=C(C(N)=O)C(=O)[C@@]2(O)C(O)=C3C(=O)c4c(O)ccc(Cl)c4[C@@](C)(O)[C@H]3C[C@@H]12 [Chlortetracycline HCl] | 0.529 ± 0.24 | 0.448 ± 0.12 | 0.862 | 0.00198 | 0.0943 | 0.454

SMILES | log2 surviving fraction (OVCAR4; [1]) | log2 surviving fraction (OVCAR4; [2]) | log2 surviving fraction (Ov4Carbo; [1]) | log2 surviving fraction (Ov4Carbo; [2]) | log2 surviving fraction (Ov4Cis; [1]) | log2 surviving fraction (Ov4Cis; [2])
CCOc1nc2cccc(C(=O)O)c2n1Cc1ccc(-c2ccccc2-c2nnn[nH]2)cc1 [Candesartan (Atacand)] | -0.287 ± 0.019 | -0.481 ± 0.1 | 0.107 | -0.852 | -0.904 | 0.00136
N[C@@H](CSCCCO)C(=O)O [Fudosteine] | 0.215 ± 0.086 | -0.0158 ± 0.26 | 0.816 | -0.18 | 0.0644 | -0.628
CC1(C)Cc2c(-c3ccccc3)c(-c3ccc(Cl)cc3)c(CC(=O)O)n2C1 [Licofelone] | 0.541 ± 0.48 | -0.0175 ± 0.17 | 0.514 | -3.07 | 0.763 | 0.0779
C#CCN(C)CCCOc1ccc(Cl)cc1Cl [Clorgyline HCl] | -0.0128 ± 0.29 | -0.476 ± 0.14 | 0.832 | 0.194 | 0.454 | 0.164
NCCCC(O)(P(=O)(O)O)P(=O)(O)O [Alendronate (Fosamax)] | 0.0692 ± 0.55 | 0.244 ± 0.11 | 0.882 | 0.431 | -0.503 | -0.881
COc1ccc(C2C(=O)c3ccccc3C2=O)cc1 [Anisindione] | -0.0654 ± 0.19 | 0.228 ± 0.45 | 0.0414 | -0.00449 | 0.736 | 0.625
CSc1ccc2c(c1)N(CCC1CCCCN1C)c1ccccc1S2 (configuration not stated) [Thioridazine HCl] | -7.62 ± 1.1 | -4.2 ± 7 | -8.11 | -10.5 | -8.19 | -13.2
CC(=O)OCC(=O)[C@@]1(O)[C@H](C)C[C@H]2[C@@H]3CCC4=CC(=O)C=C[C@]4(C)[C@@]3(F)[C@@H](O)C[C@@]21C [Dexamethasone acetate] | 2.29 ± 1.5 | -0.392 ± 1.6 | 1.34 | 1.8 | 1.54 | -2.59
C[C@H](CS)C(=O)N1CCC[C@H]1C(=O)O [Captopril (Capoten)] | -0.376 ± 0.26 | 0.469 ± 0.75 | -0.766 | 0.19 | -0.216 | -0.239
c1ccc2c(c1)CCCC2C1=NCCN1 (configuration not stated) [tetrahydrozoline hydrochloride] | 0.14 ± 0.46 | 0.461 ± 0.34 | -0.343 | 0.595 | 0.22 | -4.14
CCCCCCCCCCCC[N+](C)(C)CCOc1ccccc1 [Domiphen Bromide] | -9.96 ± 0.97 | -11.7 ± 6.4 | -8.34 | -11.4 | -8.81 | -15.3
CC1=C(C(=O)O)N2C(=O)[C@@H](NC(=O)[C@H](N)c3ccccc3)[C@H]2SC1 [Cephalexin (Cefalexin)] | 0.612 ± 0.15 | 0.218 ± 0.25 | 0.322 | 0.12 | 0.0773 | -0.00182
CN1CC(=O)N2[C@H](c3ccc4c(c3)OCO4)c3[nH]c4ccccc4c3C[C@@H]2C1=O [Tadalafil (Cialis)] | -0.0619 ± 0.96 | 0.0424 ± 0.18 | 0.646 | -1.33 | 0.438 | 0.333
O=C1CN2Cc3c(ccc(Cl)c3Cl)N=C2N1 [Anagrelide HCl] | -0.299 ± 0.029 | -0.107 ± 0.21 | 0.512 | -0.601 | 0.211 | 0.206
C[N+]1(C)CCOC(O)(c2ccc(-c3ccc(C4(O)C[N+](C)(C)CCO4)cc3)cc2)C1 (configuration not stated) [Hemicholinium Bromide] | 0.181 ± 0.36 | 0.342 ± 1.1 | -0.148 | 0.0572 | 0.562 | 0.473
CC(O)(CS(=O)(=O)c1ccc(F)cc1)C(=O)Nc1ccc(C#N)c(C(F)(F)F)c1 (configuration not stated) [Bicalutamide (Casodex)] | -0.613 ± 0.55 | 2.71 ± 3.7 | -0.0681 | -0.348 | 0.0669 | 0.125
COCCCC/C(=N\OCCN)c1ccc(C(F)(F)F)cc1 [Fluvoxamine maleate] | -0.946 ± 0.24 | -0.286 ± 0.22 | -1.96 | -0.807 | -2.47 | -0.58
CC(C)n1c(/C=C/C(O)CC(O)CC(=O)O)c(-c2ccc(F)cc2)c2ccccc21 (configuration not stated) [Fluvastatin sodium (Lescol)] | -1.57 ± 0.7 | -5.02 ± 0.52 | -1.9 | -7.87 | -0.69 | -5.24
CN1[C@@H]2CC[C@H]1C[C@@H](OC(=O)[C@H](CO)c1ccccc1)C2 [Hyoscyamine (Daturine)] | 0.104 ± 0.12 | 1.24 ± 0.17 | -0.855 | -0.659 | 0.74 | -0.824
CCOc1ccc2nc3cc(N)ccc3c(N)c2c1 [Ethacridine lactate monohydrate] | -7.73 ± 4.8 | -11.9 ± 8.5 | -2.26 | -8.26 | -9.24 | -17.3
Cc1onc(-c2ccccc2)c1C(=O)N[C@@H]1C(=O)N2[C@@H]1SC(C)(C)[C@@H]2C(=O)O [Oxacillin sodium monohydrate] | 0.247 ± 0.57 | 1.35 ± 0.046 | 0.921 | 0.433 | 1.41 | 0.971
CCCCCCCCCCCCCCCC[N+](C)(C)CCN(Cc1ccc(OC)cc1)c1ncccn1 [Thonzonium Bromide] | -9.98 ± 0.54 | -8.25 ± 11 | -8.62 | -11.9 | -9.62 | -15.3
CC1(C)S[C@@H]2[C@H](NC(=O)[C@H](N)c3ccc(O)cc3)C(=O)N2[C@H]1C(=O)O [Amoxicillin (Amoxycillin)] | 0.317 ± 0.3 | 0.747 ± 1.4 | 0.789 | 1.24 | -0.00445 | 0.324

— the supplement of paper PMC8813932
